# Reference: the supplement of paper PMC11369174, “Proteome-scale characterisation of motif-based interactome rewiring by disease mutations” (Molecular Systems Biology, 2024)
# The other results are listed elsewhere or left out. These are enrichments in a pooled selection; single values are uncertain.
# T1: GEF_Sec7__Q9Y6D5_639_829
# T1 chain: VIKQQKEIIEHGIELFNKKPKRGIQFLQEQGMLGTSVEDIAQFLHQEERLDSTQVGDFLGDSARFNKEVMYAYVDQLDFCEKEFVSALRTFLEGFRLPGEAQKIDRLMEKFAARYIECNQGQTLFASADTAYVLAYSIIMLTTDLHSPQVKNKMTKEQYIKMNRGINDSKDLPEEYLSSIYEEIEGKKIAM
# T2: GGA1_VHS__Q9UJY5_1_157
# T2 chain: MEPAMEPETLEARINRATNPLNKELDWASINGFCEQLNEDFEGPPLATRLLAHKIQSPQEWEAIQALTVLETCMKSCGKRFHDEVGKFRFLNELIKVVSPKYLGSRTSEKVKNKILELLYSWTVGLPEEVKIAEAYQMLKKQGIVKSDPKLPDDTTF
# Target: GABARAPL1_ATG8__Q9H0R8_2_115
# Assay: mean normalised NGS count of phage-displayed peptide after selection on bait (% of reads); baits are purified protein domains named by gene / domain / UniProt id / residues; peptides come from disordered regions of human proteins; higher = stronger enrichment / binding
# Details: replicate selections in which the peptide was seen: 6
row,Binder,mean normalised NGS count
1,DDYVHISLPQATVIPP [TSC1 404-419 mut Q92574.T417I],80.4
2,DDYVHISLPQATVTPP [TSC1 404-419 wt],2.03
3,REFALEDFTFLRDPWN [SCN2A 176-191 mut P35498.G177E],0.0141
4,GQARADESTYVLVAHS [IFIH1 821-836 mut Q9BYX4.R822Q],0.614
5,DSLDLNADSWDFVAAI [KCND1 583-598 mut Q9NSA2.R592W],0.141
6,REFALEDFTFLRDPWN [SCN3A 176-191 mut P35498.G177E],0.0141
7,WTPESFIVVEEAGEFS [PTPN22 620-635 mut Q9Y2R2.R620W],0.235

# Target: GABARAPL2_ATG8__P60520_2_115
# Assay: as above
# Details: replicate selections in which the peptide was seen: 6
# GABARAPL2_ATG8__P60520_2_115, sequence (chain, as listed by the source): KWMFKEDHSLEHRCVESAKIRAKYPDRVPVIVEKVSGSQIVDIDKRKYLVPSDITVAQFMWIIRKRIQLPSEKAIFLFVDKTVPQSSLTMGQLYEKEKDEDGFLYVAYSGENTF
row,Binder,mean normalised NGS count
1,DDYVHISLPQATVIPP [TSC1 404-419 mut Q92574.T417I],91.3
2,DDYVHISLPQATVTPP [TSC1 404-419 wt],1.47
3,DDWIVDDDGIGYVEDG [POLA1 76-91 wt],0.0691
4,KHESGTTAWQLVNSSV [TTN 29707-29722 mut Q8WZ42.R29708H],0.00856
5,WSLEDLDLSGEEVQRL [DNAAF2 8-23 mut Q9NVR5.S8W],0.164

# Target: MAP1LC3B_ATG8__Q9GZQ8_2_119
# Assay: as above
# Details: replicate selections in which the peptide was seen: 6
row,Binder,mean normalised NGS count
1,DDYVHISLPQATVIPP [TSC1 404-419 mut Q92574.T417I],26.3
2,DDYVHISLPQATVTPP [TSC1 404-419 wt],0.901
3,DSLDLNADSWDFVAAI [KCND1 583-598 mut Q9NSA2.R592W],0.462

# Target: GABARAPL2_ATG8__P60520_2_115
# Assay: as above
# Details: replicate selections in which the peptide was seen: 5
row,Binder,mean normalised NGS count
1,GQARADESTYVLVAHS [IFIH1 821-836 mut Q9BYX4.R822Q],0.102
2,QWYLADIFTTAVDIRW [KCNJ2 66-81 mut P63252.R67W],0.0339
3,FEVVMEKDMVGSLAHD [KCNH2 129-144 mut Q12809.P141L],0.00702
4,TVGLAQQWVQLDQLGM [SPTAN1 2287-2302 mut Q13813.D2295V],0.00623

# Same assay, conditions: replicate selections in which the peptide was seen: 2
row,Binder,mean normalised NGS count
1,DSLDLNADSWDFVAAI [KCND1 583-598 mut Q9NSA2.R592W],0.00153
2,APFLPNHPVISLKRNE [GLDC 777-792 wt],0.0627
3,RELFEFFANNTTIHGA [SCNN1A 56-71 wt],0.0554
4,ADIHDFVIILHRVEWA [OCA2 665-680 mut Q04671.E671V],0.00462
5,VQLDQLGMRMQHNLEQ [SPTAN1 2295-2310 mut Q13813.D2295V],0.0166

# Same assay, conditions: replicate selections in which the peptide was seen: 3
row,Binder,mean normalised NGS count
1,WTPESFIVVEEAGEFS [PTPN22 620-635 mut Q9Y2R2.R620W],0.00865
2,STISPYYRQSLFRTVL [CRYAA 42-57 wt],0.0854
3,ATYPRLLEGEDAHLSS [KRT14 413-428 mut P02533.R416P],0.714
4,ATYPRLLEGEDAHLSS [KRT16 413-428 mut P02533.R416P],0.714
5,YSAAWVLLAPTWHTSA [CASR 4-19 mut P41180.L13P],0.0142
6,HFVMVEVHHPDSEPDV [WHRN 720-735 mut Q9P202.R728H],0.00872

# Same assay, conditions: replicate selections in which the peptide was seen: 4
row,Binder,mean normalised NGS count
1,ADIHDFEIILHRVEWA [OCA2 665-680 wt],0.0112
2,SVAGHLSTSTTVSSSG [POGZ 60-75 wt],1.77

# Target: T1, GEF_Sec7__Q9Y6D5_639_829
# Assay: as above
# Details: replicate selections in which the peptide was seen: 2
row,Binder,mean normalised NGS count
1,LRAKVAQLQTDYDALK [CEP135 1082-1097 wt],17.4

# Same assay, conditions: replicate selections in which the peptide was seen: 6
row,Binder,mean normalised NGS count
1,EGVWLTETGMALLRNL [KMT2D 1588-1603 wt],54.8
2,KGVWLTETGMALLRNL [KMT2D 1588-1603 mut O14686.E1588K],0.412
3,LKEIRTQYEVMASSNM [GFAP 235-250 mut P14136.A244V],0.211
4,LTEIRTQYEAMASSNM [GFAP 235-250 mut P14136.K236T],0.963
5,QQISAMKLHISQLQHE [DCTN1 1095-1110 mut Q14203.R1101K],20.5

# Target: T2, GGA1_VHS__Q9UJY5_1_157
# Assay: as above
# Details: replicate selections in which the peptide was seen: 2
row,Binder,mean normalised NGS count
1,SQEAASSFGDDRLLIE [PCCA 246-261 wt],0.0266
2,VNKATYASVGDQELLQ [BRCA1 191-206 wt],0.151
3,EELLSDMKADVTLLPA [CHD3 1869-1884 mut Q12873.R1881L],0.713
4,EELLSDMKADVTLLPA [CHD4 1869-1884 mut Q12873.R1881L],0.713
5,DDSDDDPVLIPGARYQ [DCAF6 655-670 mut Q58WW2.R670Q],0.0102
6,VAQNSKQSGEDSKMLV [KMT2C 390-405 mut Q8NEZ4.C394S],0.0181
7,EELLSDMKADVTLLPA [CHD5 1869-1884 mut Q12873.R1881L],0.713
8,VTKTYVTLTWDPPLLD [TTN 22890-22905 mut Q8WZ42.S22894Y],0.00733
9,SWEDAALLTEANLPAP [BSCL2 351-366 wt],0.0105
10,IFGSAKASQEADSVLI [TWNK 573-588 mut Q96RR1.N585S],0.0198

# Same assay, conditions: replicate selections in which the peptide was seen: 3
row,Binder,mean normalised NGS count
1,DMDDVVDADEYLILQQ [EGFR 1006-1021 mut P00533.P1019L],0.0146
2,SHGPDAKLLAGGEDVA [NTRK1 603-618 wt],0.0659
3,SYGPDAKLLAGGEDVA [NTRK1 603-618 mut P04629.H604Y],0.145
4,DVKLLYPVSKYQQDQV [PIK3R1 421-436 wt],0.124
5,VGDQELLQITPQGTRD [BRCA1 199-214 wt],0.251
6,VGDQELLQITPQGTRG [BRCA1 199-214 mut P38398.D214G],0.0106
7,DAFHHQVHDDDLLSSS [EMD 128-143 wt],0.0599
8,HPDEDDTLVDSPAVTP [PKD1 3623-3638 mut P98161.E3632D],0.769
9,DDTLVDSPAVTPVSAR [PKD1 3627-3642 mut P98161.E3632D],0.123
10,QDVEDINILSLTDEEP [SOS1 178-193 wt],0.488
11,DSPEPVTEINEDSVLI [PALB2 208-223 wt],0.0815
12,PDLPLLTALTQDQEFA [ALMS1 224-239 wt],0.0228
13,VTKTSVTLTWDPPLLD [TTN 22890-22905 wt],0.236
14,YVTLTWDPPLLDGGSK [TTN 22894-22909 mut Q8WZ42.S22894Y],0.0166
15,SWEDAALLTEANPPAP [BSCL2 351-366 mut Q96G97.L363P],0.0141
